Hit rate of the full screen: of about 130,000 compounds, about 1,200 (0.92%) were called active. This list was built around the results that the source calls inconclusive (neither active nor inactive); the mix of calls is not that of the screen. Calls come from the whole dose curve; as a rule, active = well fitted cell-killing curve with a large enough effect; inconclusive = small, poorly fitted or top-dose-only effect; inactive = no such curve, though single readings can be large or run the other way. A potency beside an inconclusive call is a rough fit, not a confirmed value.
assay: qHTS Screen for Compounds that Selectively Target Cancer Cells with p53 Mutations: Cytotoxicity of p53ts Cells at the Permissive Temperature; conditions: H1299-p53A138V at 32C, ATP luminescence viability, 24 h; activity change, negative = cytotoxicity: at 46.1 µM (top of the series); note: nearly all actives have a fitted effect of over 55% in size;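 for activity change, negative = cytotoxicity: 0% = DMSO and -100% = full killing by reference compound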
Outline: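 H1299-p53 A138V cells (temperature-sensitive p53) exposed 24 h to up to 46 uM compound at 32C, where p53 is wild-type in conformation. Viability read as ATP luminescence and normalised to DMSO and 100 uM tamoxifen. AC50 fitted with the Hill equation.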
Potency is the fitted concentration of half-maximal effect; tags give direction and shape of the fitted curve.

Structure (SMILES)	Potency	activity change, negative = cytotoxicity
Cc1cc(C(=O)Nc2cccc(C(=O)O)c2)oc1C	inconclusive: 15.8 µM [cytotoxic, partial curve]	–
CC(C)c1nn2c(=O)cc(COC(=O)c3cccc(NC(=O)CCc4ccccc4)c3)nc2s1	inconclusive: 20 µM [cytotoxic, single point]	–
CC1CCCC(C)N1S(=O)(=O)c1ccc(NC(=O)c2ccccc2C(=O)N2CCOCC2)cc1 (stereo not given)	inconclusive: 31.6 µM [cytotoxic, single point]	–
COc1ccccc1/C=N/Nc1nncc2ccccc12	inconclusive: 35.5 µM [cytotoxic, partial curve]	–
O=C(Cc1c(C(=O)O)[nH]c2ccccc12)Nc1ccc2c(c1)OCO2	–	inactive: -4.12%
CCCN1CCN(CCCNC(=O)c2cc3c(s2)-c2c(C)cccc2OC3)CC1	inconclusive: 12.6 µM [cytotoxic, single point]	–
CC(C)NC(=O)C1CCCN(S(=O)(=O)c2ccc3c(ccn3C)c2)C1 (stereo not given)	–	inactive: -0.673%
O=C(Nc1ccc2c(c1)OCCO2)c1cncc(Br)c1	active: 10 µM	–
Cc1ccc(C)c(N2CCN(C3(c4ccccc4)C(=O)c4ccccc4C3=O)CC2)c1	–	inactive: -3.7%
CCOC(=O)c1ccc(NC(=O)c2cc(=O)c3ccc(C)c(C)c3o2)cc1	inconclusive: 20 µM [cytotoxic, single point]	–
Cc1cc(C)n(-c2nc3ccccc3c(=O)n2OCC(=O)Nc2c(C)cccc2C)n1	–	inactive: 5.94%
CCOC(=O)N1CCN(Cc2nc3cc(NC(=O)CC(C)C)ccc3n2C(C)C)CC1	inconclusive: 3.55 µM [cytotoxic, single point]	–
COc1cccc(-c2noc(-c3cc4ccccc4oc3=O)n2)c1OC	inconclusive: 20 µM [cytotoxic, partial curve]	–
Cn1ccnc1SCc1cn2cc(Br)ccc2n1	inconclusive: 10 µM [cytotoxic, partial curve]	–
Clc1ccccc1CNCCCSc1nnnn1-c1ccccc1	inconclusive: 3.55 µM [cytotoxic, single point]	–
Cc1ccc(-n2ncc3c(Nc4ccc(Oc5ccccc5)cc4)ncnc32)cc1	inconclusive: 22.4 µM [cytotoxic, partial curve]	–
COc1ccc(C(=O)N2CCC3(CC2)CN(c2ccc(-c4ccccc4)cc2)C3)cc1	inconclusive: 31.6 µM [cytotoxic, single point]	–
CCCn1cnc2cc(NCc3ccccn3)ccc21	inconclusive: 15.8 µM [cytotoxic, partial curve]	–
O=C(NCc1ccc(Cl)cc1)C(=O)NCC(c1ccco1)N1CCOCC1 (stereo not given)	inconclusive: 0.02 µM [cytotoxic, full curve, poor fit]	–
Cc1nc2nc(SCc3c(F)cccc3Cl)nn2c(C)c1Cc1ccccc1	–	inactive: 5.22%
O=S(=O)(Nc1cccc(-c2ccc(N3CCCCCC3)nn2)c1)c1ccccc1F	inconclusive: 17.8 µM [cytotoxic, single point]	–
CCCN1C(=O)c2[nH]nc(-c3ccccc3O)c2C1c1cccc(OCc2ccccc2)c1 (stereo not given)	inconclusive: 35.5 µM [cytotoxic, single point]	–
CCCCC(CC)CNC(=O)c1ccc2c(=O)n(CCOC)c(=O)[nH]c2c1 (stereo not given)	inconclusive: 6.31 µM [cytotoxic, partial curve]	–
CCSc1ccccc1C(=O)Nc1cccnc1	–	inactive: 3.49%

Structure (SMILES)	Potency	activity change, negative = cytotoxicity
O=C(COc1cccc2cccnc12)Nc1nccs1	inconclusive: 15.8 µM [cytotoxic, partial curve]	–
Cc1cc(OCC(=O)Nc2cc(-c3nc4ccccc4[nH]3)ccc2C)ccc1Cl	inconclusive: 15.8 µM [cytotoxic, single point]	–
Cc1ccc(CN2CCC(CNC(=O)c3cc4ccc5cccnc5c4[nH]3)CC2)cc1	inconclusive: 12.6 µM [cytotoxic, partial curve, poor fit]	–
CC(=O)c1cccc(NC(=O)c2cc(-c3ccc(C)cc3)on2)c1	inconclusive: 15.8 µM [cytotoxic, single point]	–
COc1ccccc1-c1nnc2n(CCc3ccccc3)c(=O)c3ccccc3n12	–	inactive: 1.27%
O=S(=O)(NCCc1csc2nc(-c3ccc(Cl)cc3)nn12)c1ccc(Oc2ccccc2)cc1	–	inactive: 12.4%
c1ccc2c(CSCc3cccc4ccccc34)cccc2c1	–	inactive: 2.22% [at 9.22 µM]
Oc1ccc([C@@H]2CNCCc3c2cc(O)c(O)c3Cl)cc1	inactive	–
C=C(C)c1cccc(C(C)(C)NC(=O)Nc2ccc(C)cn2)c1	inconclusive: 0.005 µM [cytotoxic, full curve, poor fit]	–
O=C(Oc1cc(=O)oc2ccccc12)c1ccco1	inconclusive: 31.6 µM [cytotoxic, single point]	–
CCc1sc(Nc2ccc(C)cc2Br)nc1-c1cc2cccc(OC)c2oc1=O	inconclusive: 12.6 µM [cytotoxic, single point]	–
Cc1ccc(O)c(NC(=O)c2noc3c2CCCCC3)c1	active: 12.6 µM	–
O=C(N/N=C/c1c[nH]c2ccccc12)c1cc(-c2ccc3ccccc3c2)n[nH]1	inconclusive: 35.5 µM [cytotoxic, single point]	–
Cc1ccc(-n2ncc3c(N4CCN(C)CC4)ncnc32)cc1	inconclusive: 12.6 µM [cytotoxic, partial curve]	–
CCC(CC)C(=O)NCCc1cc2cc(C)c(C)cc2[nH]c1=O	inconclusive: 12.6 µM [cytotoxic, single point]	–
COCCOC(=O)C(C#N)c1nc2ccccc2nc1N1CCCC1 (stereo not given)	–	inactive: 8.06%
CCn1c2ccccc2c2nc3cc(S(=O)(=O)N4CCOCC4)ccc3nc21	–	inactive: -3.11%
CCN1CCN(/C=N/c2nc3c(s2)CCCC3)CC1	inconclusive: 10 µM [cytotoxic, partial curve]	–
S=c1[nH]c2ccc(Cl)cc2[nH]1	–	inactive: -6.5%
CN1CCN(c2nc(-c3ccc(N(C)C)cc3)nc3ccccc23)CC1	inconclusive: 12.6 µM [cytotoxic, single point]	–
CC(C)(C)c1ccc(-c2nc(-c3ccncc3)no2)cc1	inconclusive: 31.6 µM [cytotoxic, single point]	–
CCN(CC)C(=O)CSc1nc2cc3c(cc2c(=O)n1CCCCCC(=O)NCCc1ccc(OC)c(OC)c1)OCO3	–	inactive: 12.2%
Cc1nn(Cc2c(Cl)cccc2Cl)c(C)c1NC(=O)c1cc(C(C)C)on1	inconclusive: 1.26 µM [cytotoxic, full curve]	–
CCCOc1ccc(-c2nc(N)n[nH]2)cc1	inconclusive: 10 µM [cytotoxic, partial curve]	–

Structure (SMILES)	Potency	activity change, negative = cytotoxicity
CCc1ccc(S(=O)(=O)Nc2cccc(-c3ccc(N4CCC(C)CC4)nn3)c2)s1	active: 12.6 µM	–
N=c1c(C(=O)NCc2ccc(F)cc2)cc2c(=O)n3ccccc3nc2n1CCCN1CCOCC1	–	inactive: -9.89%
CCc1cc2c(=O)c(-c3ccon3)c(N)oc2cc1OC	inconclusive: 12.6 µM [cytotoxic, partial curve]	–
CCOC(=O)C1=C(N)Oc2ccc(Br)cc2[C@@H]1[C@@H](C#N)C(=O)OCC	inconclusive: 31.6 µM [cytotoxic, single point]	–
COc1cccc(NC(=O)Cn2c(=O)n(CC(=O)NCc3ccc(C)cc3)c(=O)c3sccc32)c1	inconclusive: 25.1 µM [cytotoxic, single point]	–
Cc1ccc(C(c2ccccc2)c2c(C)[nH]c3ccccc23)s1 (stereo not given)	–	inactive: -5.71%
CCc1ccc(-c2nc(-c3ccncc3)no2)cc1	inconclusive: 12.6 µM [cytotoxic, single point]	–
Cn1cc(-c2nc3cnc(N4CCNCC4)nc3n(Cc3ccc(F)cc3)c2=O)c2ccccc21	inconclusive: 31.6 µM [cytotoxic, single point]	–
COc1ccc(Cl)cc1NC(=O)CSc1ncnc2c1oc1ccccc12	–	inactive: -5.27%
O=c1oc2c3c4c(cc2cc1-c1nc2ccccc2[nH]1)CCCN4CCC3	inconclusive: 12.6 µM [cytotoxic, partial curve]	–
COCCn1c(=O)c(CCc2ccccc2)nc2cnc(OCc3ccccc3)nc21	–	inactive: -1.42%
O=S(=O)(c1ccccc1)N1CCC2(CCCN(c3ccccn3)C2)CC1	–	inactive: -1.21%
CCOc1ccc(-c2cc(C(=O)N/N=C/c3ccc(O)c(OC)c3)[nH]n2)cc1	inconclusive: 12.6 µM [cytotoxic, partial curve]	–
CCC(=O)N1CCN(c2ccccc2NC(=O)COc2cc(C)ccc2C(C)C)CC1	inconclusive: 31.6 µM [cytotoxic, single point]	–
O=c1[nH]c2ccccc2c2nc3ccccn3c12	inconclusive: 12.6 µM [cytotoxic, partial curve]	–
CCn1nnc(NC(=O)c2sc3ccccc3c2Cl)n1	inconclusive: 10 µM [cytotoxic, partial curve]	–
O=C(Nc1ccccc1)c1cnc[nH]1	inconclusive: 31.6 µM [cytotoxic, single point]	–
COc1ccc(-c2cc(C(=O)NCc3cccnc3)no2)cc1	inconclusive: 20 µM [cytotoxic, single point]	–
COc1cc(O)ccc1C1CC(=O)Nc2c1c(=O)nc(SCc1ccccc1C)n2C (stereo not given)	inconclusive: 6.31 µM [cytotoxic, single point]	–
Cc1cc(=O)n2c(-c3ccccc3C)n[nH]c2n1	inconclusive: 12.6 µM [cytotoxic, single point]	–
COC(=O)Cn1ncn2c(cc3oc(C)cc32)c1=O	inconclusive: 10 µM [cytotoxic, partial curve]	–
O=C(Nc1scc(-c2ccccc2)c1C(=O)O)c1ccco1	inconclusive: 20 µM [cytotoxic, single point]	–
